In ChEMBL document CHEMBL5606460, “ASAP - DENV-2 NS2B-NS3 protease fluorescence single point” (2024):
The whole screen tested about 2,000 compounds, of which about 110 (5.5%) showed an effect of 50% or more. The list shows a part of the results.

Target: Genome polyprotein (dengue virus type 2) (UniProt P29990)
[1] = Thailand/16681/1984, Concentration 25.0 uM, Number of replicates 1.0

## CN1CCC(N(C(=O)C2CCN(c3ccc(C=O)cc3)CC2)C2CCN(C)CC2)CC1
[1]
  inhibition: 11.8%

## CC(C)CN1CCN(C(=O)C2CCN(c3ccc(C=O)cc3)CC2)[C@@H](C)C1=O
[1]
  inhibition: 13.8%

## O=Cc1ccc(N2CCC(C(=O)NC[C@@H](c3ccc(Cl)cc3)N3CCCC3)CC2)cc1
[1]
  inhibition: 13.2%

## O=Cc1ccc(N2CCC(C(=O)NCCN3C(=O)CSC3=O)CC2)cc1
[1]
  inhibition: 15.5%

## Cc1cc(CO)c2cccc(Cc3cccc(C(=O)NCc4ccc(C(N)=O)cc4)c3)c2n1
Thailand/16681/1984, Concentration 49.95 uM, Number of replicates 2.0, Standard deviation 1.5788782649320652 %
  inhibition: -6.46%
Thailand/16681/1984, Concentration 99.9 uM, Number of replicates 2.0, Standard deviation 2.3363374645660926 %
  inhibition: -3.45%

## COc1cc(CS(=O)(=O)CCc2ccc(F)cc2)nc(N2CCNCC2)n1
Thailand/16681/1984, Concentration 49.5 uM, Number of replicates 2.0, Standard deviation 0.27080732584880574 %
  inhibition: -5.05%
Thailand/16681/1984, Concentration 99.01 uM, Number of replicates 2.0, Standard deviation 1.3969449870138175 %
  inhibition: -3.58%
Thailand/16681/1984, Concentration 198.0 uM, Number of replicates 2.0, Standard deviation 0.7656973069376639 %
  inhibition: -2.76%

## CC(C)(C)c1cc(NC(=O)C2CCN(c3ccc(C=O)cc3)CC2)n(-c2ccccc2)n1
[1]
  inhibition: 14.5%

## O=C(NCCn1cc([C@H]2CCOC2)cn1)c1cnn([C@H]2CCCNC2)c1
Thailand/16681/1984, Concentration 49.5 uM, Number of replicates 2.0, Standard deviation 1.3379889637924147 %
  inhibition: -3.53%
Thailand/16681/1984, Concentration 99.01 uM, Number of replicates 2.0, Standard deviation 5.525628350779771 %
  inhibition: -0.861%
Thailand/16681/1984, Concentration 198.0 uM, Number of replicates 2.0, Standard deviation 3.8909781727376043 %
  inhibition: -4.67%

## O=Cc1ccc(N2CCC(C(=O)N[C@H]3CCOc4ccc(F)cc43)CC2)cc1
[1]
  inhibition: 15.7%

## O=Cc1ccc(N2CCC(C(=O)N[C@H]3CCCN(c4cnccn4)C3)CC2)cc1
[1]
  inhibition: 9.34%

## C[C@@H](NCc1ccc(C(N)=O)cc1)c1ccc(OCc2ccccc2)cc1
Thailand/16681/1984, Concentration 49.5 uM, Number of replicates 2.0, Standard deviation 1.6752456853530722 %
  inhibition: 0.14%
Thailand/16681/1984, Concentration 99.01 uM, Number of replicates 2.0, Standard deviation 1.116678580733439 %
  inhibition: 0.358%
Thailand/16681/1984, Concentration 198.0 uM, Number of replicates 2.0, Standard deviation 0.6068608391781741 %
  inhibition: -0.175%

## CC(C)Cn1cccc(C(=O)NC2CCN(C)CC2)c1=O
Thailand/16681/1984, Concentration 49.5 uM, Number of replicates 2.0, Standard deviation 1.1325904279657266 %
  inhibition: -1.98%
Thailand/16681/1984, Concentration 99.01 uM, Number of replicates 2.0, Standard deviation 1.6159051142858558 %
  inhibition: -2.07%
Thailand/16681/1984, Concentration 198.0 uM, Number of replicates 2.0, Standard deviation 1.619546998440991 %
  inhibition: -1.15%

## O=Cc1ccc(N2CCC(C(=O)N3CCN(Cc4c(F)cccc4Cl)CC3)CC2)cc1
[1]
  inhibition: 12.1%

## CC(C)c1cccc(C(C)C)c1NC(=O)C1CCN(c2ccc(C=O)cc2)CC1
[1]
  inhibition: 12.7%

## CC(C)COc1ccc(CNC(=O)C2CCN(c3ccc(C=O)cc3)CC2)cc1
[1]
  inhibition: 2.46%

## COc1cncc(-c2ccccc2C(=O)Nc2cnn(C)c2)c1
Thailand/16681/1984, Concentration 49.5 uM, Number of replicates 2.0, Standard deviation 4.873700787377785 %
  inhibition: -3.38%
Thailand/16681/1984, Concentration 99.01 uM, Number of replicates 2.0, Standard deviation 4.283563999447018 %
  inhibition: -2.98%
Thailand/16681/1984, Concentration 198.0 uM, Number of replicates 2.0, Standard deviation 3.278109642747346 %
  inhibition: -2.42%

## O=Cc1ccc(N2CCC(C(=O)NCc3ccc4c(c3)OCCO4)CC2)cc1
[1]
  inhibition: 12.2%

## O=Cc1ccc(N2CCC(C(=O)Nc3c(Cl)cccc3[N+](=O)[O-])CC2)cc1
[1]
  inhibition: 16.2%

## CN(C)CC[C@H]1CCCCN1C(=O)C1CCN(c2ccc(C=O)cc2)CC1
[1]
  inhibition: 12.7%

## Cc1cc(CO)c2cccc(Cc3ccccc3NC(=O)COc3cccc(CN)c3)c2n1
Thailand/16681/1984, Concentration 49.95 uM, Number of replicates 2.0, Standard deviation 1.3016362954274043 %
  inhibition: 16.2%
Thailand/16681/1984, Concentration 99.9 uM, Number of replicates 2.0, Standard deviation 0.9589170051249469 %
  inhibition: 36.2%

## c1ccc2c([C@H]3CCN(Cc4cc(-c5ccncc5)[nH]n4)C3)c[nH]c2c1
Thailand/16681/1984, Concentration 49.5 uM, Number of replicates 2.0, Standard deviation 1.1828738098753457 %
  inhibition: -1.48%
Thailand/16681/1984, Concentration 99.01 uM, Number of replicates 2.0, Standard deviation 1.3116025078136844 %
  inhibition: -0.346%
Thailand/16681/1984, Concentration 198.0 uM, Number of replicates 2.0, Standard deviation 1.2038517715189156 %
  inhibition: 1.4%

## c1cc(CN2CCC[C@H](c3c[nH]c4ccccc34)C2)c2[nH]ccc2c1
Thailand/16681/1984, Concentration 50.0 uM, Number of replicates 2.0, Standard deviation 0.4266990775965363 %
  inhibition: 3.91%
Thailand/16681/1984, Concentration 100.0 uM, Number of replicates 2.0, Standard deviation 0.08925842718897734 %
  inhibition: 2.52%
Thailand/16681/1984, Concentration 200.0 uM, Number of replicates 2.0, Standard deviation 0.03646535850121636 %
  inhibition: -0.209%

## O=Cc1ccc(N2CCC(C(=O)Nc3cccc(N4CCOCC4)c3)CC2)cc1
[1]
  inhibition: 5.25%

## CC[C@H](C)N(Cc1ccccc1)C(=O)C1CCN(c2ccc(C=O)cc2)CC1
[1]
  inhibition: 15.2%

## Cn1cc(NC(=O)c2ccccc2C(F)(F)F)c(-c2ccccc2CO)n1
Thailand/16681/1984, Concentration 49.5 uM, Number of replicates 2.0, Standard deviation 2.690411200151082 %
  inhibition: 0.164%
Thailand/16681/1984, Concentration 99.01 uM, Number of replicates 2.0, Standard deviation 1.656230038829321 %
  inhibition: 3.26%
Thailand/16681/1984, Concentration 198.0 uM, Number of replicates 2.0, Standard deviation 0.4386121372092316 %
  inhibition: 5.18%

## Cc1ccc2c(c1)C(=O)NCCN2S(=O)(=O)c1ccc(Oc2ccccc2Cl)cc1
Thailand/16681/1984, Concentration 49.5 uM, Number of replicates 2.0, Standard deviation 1.3317942199982835 %
  inhibition: 3.76%
Thailand/16681/1984, Concentration 99.01 uM, Number of replicates 2.0, Standard deviation 0.1427776755398689 %
  inhibition: 5.3%
Thailand/16681/1984, Concentration 198.0 uM, Number of replicates 2.0, Standard deviation 0.4641463839110716 %
  inhibition: 7.48%

## CC(C)(CO)NC(=O)c1cc(Cl)cc(NC(=O)c2cc(Cl)ccc2O)c1
Thailand/16681/1984, Concentration 49.5 uM, Number of replicates 2.0, Standard deviation 0.8854702210359225 %
  inhibition: 8.85%
Thailand/16681/1984, Concentration 99.01 uM, Number of replicates 2.0, Standard deviation 1.285544965840733 %
  inhibition: 17.3%
Thailand/16681/1984, Concentration 198.0 uM, Number of replicates 2.0, Standard deviation 0.761128925733871 %
  inhibition: 30.7%

## Cc1cc(CO)c2cccc(CC(=O)N3CCC(CN)CC3)c2n1
Thailand/16681/1984, Concentration 49.95 uM, Number of replicates 2.0, Standard deviation 0.0034621107240788793 %
  inhibition: -8.08%
Thailand/16681/1984, Concentration 99.9 uM, Number of replicates 2.0, Standard deviation 0.5836590412197755 %
  inhibition: 1.32%

## Cc1ccc(N)cc1NC(=O)c1ccc2c(c1)CCNCC2
Thailand/16681/1984, Concentration 99.9 uM, Number of replicates 2.0, Standard deviation 6.34893595313931 %
  inhibition: -4.39%

## O=Cc1ccc(N2CCC(C(=O)Nc3ccc4c(c3)OC(F)(F)O4)CC2)cc1
[1]
  inhibition: 10.8%

## C[C@@H](Cc1ccc(C(F)(F)F)cc1)NC(=O)C1CCN(c2ccc(C=O)cc2)CC1
[1]
  inhibition: 8.27%

## C[C@H](NC(=O)C1CCN(c2ccc(C=O)cc2)CC1)c1ccc(S(C)(=O)=O)cc1
[1]
  inhibition: 12.5%
